This passage reports Inhibition % results from article PMC9574860, “Chemical Toolkit for PARK7: Potent, Selective, and High-Throughput” (Journal of Medicinal Chemistry, 2022).

In all, about 7,900 compounds went through this assay and about 400 (5.1%) showed an effect of 50% or more. The list shows a part of the results.

For this assay, the target named is Parkinson's disease protein 7 (PARK7/DJ1) (human, UniProt Q99497). Kind of assay: primary screen, percent inhibition; read as competition with a fluorescent probe by fluorescence polarization; higher = more effect of the substance. As to conditions: 100 µM. As to the method: The screen was conducted using the conditions as described above in 1536-well plates (Corning 3724) with a reaction volume of 8 μL per well. The compound library containing 7887 covalent fragments was purchased at Enamine Ltd. and received as 100 mM DMSO stocks in 384 well LDV Echo plates (Labcyte LP-0200). Stock solutions of 0.26 μM PARK7 and 80 nM JYQ-107 were prepared. Using a Labcyte Echo550 acoustic dispenser, 8 nL of the DMSO stock solution of the library compounds was transferred from the source plates into the empty 1536-well screening plates to obtain a 100 μM final compound concentration. Next, PARK7 (6 μL, final concentration 0.2 μM) was dispensed using a Biotek MultiflowFX liquid dispenser and incubated for 2 h, followed by dispensing the probe JYQ-107 (2 μL, final concentration 20 nM). After 2 h incubation, the FP signal was recorded on a BMG Labtech PHERAstar plate reader (λex/em 480/520 nm). The relative loss of FP signal compared with reference controls was used to calculate the remaining enzyme activity.
Sequence of Parkinson's disease protein 7 (PARK7/DJ1) (Q99497 whole entry, looked up, the tested form may be a part): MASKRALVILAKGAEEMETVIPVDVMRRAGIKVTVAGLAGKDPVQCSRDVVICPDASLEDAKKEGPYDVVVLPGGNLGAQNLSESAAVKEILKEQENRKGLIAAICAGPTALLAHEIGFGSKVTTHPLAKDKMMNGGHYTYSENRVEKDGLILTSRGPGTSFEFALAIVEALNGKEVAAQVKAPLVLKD
Regarding `Cc1ccc(S(=O)(=O)n2ccnc2C)cc1`, the Inhibition % worked out at 3.4%. To `CN(C)C1(CNC(=O)CCl)CCCCC1.Cl` belongs 3.04%; to `CC(C)N(C(=O)Cn1cnc(C#N)n1)c1ccccc1`, 8.33%; to `Cc1ccc(C(=O)O)cc1S(=O)(=O)F`, 99.4%. The result for `O=C(CCl)N1CCC(c2nc3ccccc3o2)CC1` reads 20.5%; that for `O=C(c1ccccc1)N1CCCC(S(=O)(=O)F)C1` (stereo not shown), 32.4%; that for `C=CC(=O)N1CCN(S(=O)(=O)N(C)C2CCCCC2)CC1`, 5.64%. The result for `COc1ccc(S(=O)(=O)n2ccnc2C)c(C)c1C` reads 1.84%; that for `N#Cc1nccc2ccccc12`, 5.57%; that for `COCC(C)n1c(S)nc2ccccc2c1=O` (stereo not shown), 10.1%.

As to `C=CC(=O)NC1(c2ncon2)CCOCC1`, the Inhibition % stood at 0.948%. To `Cc1cc(S(N)(=O)=O)cc(NC(=O)CCl)c1C` belongs 2.37%. For the compound `CN(C)C(=O)c1cccc(CN2C(=O)CSC2=O)c1`, the Inhibition % was determined as 29.9%. For `CC1(C)OB(c2ccc3c(c2)CC(=O)N3)OC1(C)C`, the Inhibition % is reported as 5.99%. For `C=CC(=O)N1CCC(F)(c2ccccc2)C1` (stereo not shown), the Inhibition % is listed as 8.62%.

`Cc1cc(C)c(C(=O)Cn2cnc(C#N)n2)c(C)c1`: the Inhibition % is 10%. As for `CC(C)C(CNC(=O)CCl)c1ccccc1` (stereo not shown), the Inhibition % amounted to 33%.

On to `COc1ccc(S(=O)(=O)N(C)C)cc1NC(=O)CCl`, for which the Inhibition % amounted to 20.4%. For the compound `Cc1ccc(NC(=O)CCl)cc1I`, the Inhibition % was determined as 81.5%.

Consider `C=CC(=O)NC1(C#N)CCOC1` (stereo not shown), for which the Inhibition % was determined as 2.26%. To `Cc1nc(C2(NC(=O)CCl)CCCCCC2)no1` belongs -2.32%; to `O=C(Nc1cccc(-c2noc(=O)[nH]2)c1)C1CC1`, 10.1%; to `C=CC(=O)N1CCC(c2ncc(C)s2)CC1`, 1.87%. As for `C=CC(=O)N1CCCN(C(=O)c2ccco2)CC1`, the Inhibition % is 1.97%. With `C=CC(=O)NC1CCOc2ccccc21` (stereo not shown), the Inhibition % worked out at 4.4%. The result for `CC1(C)OB(c2cc(-c3ccccc3)co2)OC1(C)C` reads 85.9%; that for `Cc1cc(S)nc(C(C)C)n1`, 32.8%. In the case of `C=CC(=O)N1CCc2ccccc2C1`, the Inhibition % is on record as 11.5%. For `CC(C)n1nccc1NC(=O)CCl`, the Inhibition % is 15.5%. The result for `C=CC(=O)NC1CC2CCCCN2C1=O` (stereo not shown) reads 6.4%.

On to `Cc1ccc(C=CS(=O)(=O)NC2(CN)CCCC2)cc1.Cl`, for which the Inhibition % came to 3.12%.

On to `CC1(C)OB(c2ccc(CN)cc2)OC1(C)C.Cl`, for which the Inhibition % is 4.13%. On to `N#Cc1coc(C2CC2)n1`, for which the Inhibition % came to 10.5%. The result for `CS(=O)(=O)c1cccc(NC(=O)CCl)c1` reads 7.34%; that for `C=CCNC(=O)C(C#N)=Cc1cccc(C(F)(F)F)c1`, 9.69%; that for `C=CC(=O)N(C)C1CCN(c2ncnc3ccccc23)CC1`, 16.8%. Regarding `Cc1nc(C2CCCCN2C(=O)c2cc(S(=O)(=O)F)c[nH]2)n[nH]1` (stereo not shown), the Inhibition % is given as 5.24%. On to `N#Cc1c(NC(=O)CCl)sc2c1CCC2`, for which the Inhibition % is 9.04%. For the compound `CS(=O)(=O)c1ccc(OCCCl)cc1`, the Inhibition % was determined as 4.09%. To `CN(C)C(=O)CNS(=O)(=O)C=Cc1ccc(Cl)cc1` belongs -1.97%. To `CCc1oc2ccccc2c1C=CC(=O)N1CCC(N)C1` (stereo not shown) belongs 5.91%; to `O=C(C=Cc1c(Cl)nc2sccn12)N1CCCCC1`, 5.55%. Turning to `O=C(CS)Nc1ccccc1`, the Inhibition % is 50.4%. The result for `CC1(C)OB(C2(N)CCC2)OC1(C)C.Cl` reads 8.29%.

For `Fc1cc(F)c2c(c1)CCN2CCC1OCCO1`, the Inhibition % is recorded as 18.8%. On to `C=CC(=O)NC1CCOC2(CCSCC2)C1` (stereo not shown), for which the Inhibition % was found to be 3.91%. The result for `C=CC(=O)N1CCC2(CCOCC2)C1C` (stereo not shown) reads 8.76%; that for `C=CC(=O)NCC1(c2ccc(Cl)cc2)CC1`, 2.93%; that for `Cl.O=C1CC2(CNC2)N1Cc1ccccc1`, 7.88%.

For the compound `Cc1ccc(C)c(B2OC(C)(C)C(C)(C)O2)c1`, the Inhibition % turned out to be 6.88%. On to `C=CC(=O)Nc1ccc(OCC)c(CO)c1`, for which the Inhibition % is on record as 4.38%.

For `CC(C)(C#N)CC(=O)N1CCC(C2NC(=O)C2(C)C)CC1` (stereo not shown), the Inhibition % worked out at 7.05%.

For the compound `NC(=O)C1(NS(=O)(=O)C=Cc2ccccc2)CCCC1`, the Inhibition % amounted to 8.21%. To `O=C(CCl)c1ccc(O)cc1O` belongs 81.9%; to `Cc1sc(NC(=O)CCl)c(C#N)c1C`, 9.37%; to `Cc1nn(C)c(C)c1C=CC(=O)N1CC(C)CC(C)C1` (stereo not shown), 8.17%.

For `CC1(C)OB(Cc2ccc(F)cc2)OC1(C)C`, the Inhibition % is on record as 1.29%. With `CC1CN(c2ccc(NC(=O)CCl)cc2)CC(C)O1` (stereo not shown), the Inhibition % is recorded as 3.61%. To `CC1(C)OB(c2c(Cl)cccc2Cl)OC1(C)C` belongs 1.49%; to `Cc1cc(B(O)O)ccc1OCc1cccc(Cl)c1`, 4.79%; to `CC(C)c1ccc(CN2CCN(C(=O)CCl)CC2)cc1.Cl`, 2.76%.
